The source gives no read counts; variants with many changes may rest on few reads.

B1: CPEB3 Ribozyme (parent)
chain: UAACAGGGGGCCACAGCAGAAGCGUUCACGUCGCAGCCCCUGUCAGAUUCUGGUGAAUCUGCGAAUUCUGCUGUAUAUCUC

Variants of B1 are the subject of the data set. As to the kind of experiment: self-cleavage, relative activity (ratio to wild type); higher = more cleavage; in vitro, sequencing. The method in brief: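 Relative activity compares each variant's cleaved/total read fraction with that of the unmutated ribozyme. To get these fractions, barcoded CPEB3 ribozyme libraries from rounds of error-prone PCR were transcribed with T7 RNA polymerase for 5 hours at 37°C and then given 15 min of DNase I treatment before EDTA was added. The RNAs were reverse transcribed with template switching and sequenced on Illumina, and DNA sequencing linked barcodes to variants. A minimum of 5 reads applied, and three batches were averaged.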
For UAACAGGGGACCGCAGCAGAAGCGUUCACGUCGCAGCCCCUGUCAGAUUCAGGUGAAUCUGCGAAUUCUGCUGAAUAUCAC [G10A A13G U51A U74A U80A], the self-cleavage came out at 0.12.

For the variant UAACAGGGGACCACUGCGGAAGCGUUCACGUCGCAGCCCCAGUCAGAUUCUGGUGAAUCUGCGAAUUCUGCUGUAUAACUC [G10A A15U A18G U41A U78A], the self-cleavage came to 0.02.

For UAACAGGGGACCACUGCAGAAGCGUUCACGUCGCAGCCCCUGUCAGAUUCUGGUGAAUCUGCGAAUUCAGCUGUAUAUCUC [G10A A15U U69A], the self-cleavage was found to be 0.11.

As to UAACAGGGGACCACUGCGGAAGCGUUCACGUUGCAGCCCCUGUCAGAUACAGGUGAAUCUGCGAAUUCUGCUGCAUAUCUC [G10A A15U A18G C32U U49A U51A U74C], the self-cleavage worked out at 0.12.

Regarding UAACAGGGGACCACGGCAGAAGCGUUCACGUCGCAGCCCCUGUCAGAUUCUGGUGAAUCUGCGAAUUCUGCUGUGUAUCUC [G10A A15G A75G], the self-cleavage came to 0.07.

On to UAACAGGGGACCCCAGCAGAAGCGUUCACGUAGCAGCCCCUGUCAGAUUCCGGCGGAUCUGCGAAUUCUGCUGUAUAUCUC [G10A A13C C32A U51C U54C A56G], for which the self-cleavage was determined as 0.22.

Take UAACAGGGGACCGCAGCAGAAGCGUUCACGUCGCAGCUCCUGUCAGAUUCUGGUGAAUCUGCGAAUUCUGCUGUAUAUCCC [G10A A13G C38U U80C]: the self-cleavage was determined as 0.04.

As to UAACAGGGGACCGCAGCAGAAGCGUUCACGUCGCAGCCCCUGUCUGAGUCUGGUGUAUCUGCGAAUUCUGCUGUAUAUCUC [G10A A13G A45U U48G A56U], the self-cleavage came out at 0.1.

Consider UAACAGGGGACCACCGCAGAAGCGCUCACGUCGCAGCCCCUGUCAGAUUCCGGUGAAUCUGCGAAUUCUGCUGUAUAUCUC [G10A A15C U25C U51C], for which the self-cleavage worked out at 0.32.

As to UAACAGGGGACCUCAGCGGAAGCGUUCACGUCGCAGCCCCUGUCAGAUUCCGGUGGAUCUGCGAAUUCUGCUGUAUAUCUC [G10A A13U A18G U51C A56G], the self-cleavage worked out at 0.1.

In the case of UAACAGGGGACCACUGCAGAAGCGUUCACGUCGCAGCCCCUGUCAGAUUCUGGUGAAUCUGCGUACUCUGCUGUAUAUCUC [G10A A15U A64U U66C], the self-cleavage amounted to 0.05.

Take UAACAGGGGACCUCAGCAGAAGCGGUCACGUCGCAGCCCCUGUCAGACUCUGGUGAAUCUGCGAAUUCCGCUGUAUAUCUC [G10A A13U U25G U48C U69C]: the self-cleavage was found to be 0.19.

On to UAACAGGGGACCGCAGCAGAAGCGUUCACGACGCAGCCCCUGUCAGAUUCUGGUGAAUCUGCGAAUUCUGCUGUAUAUCUC [G10A A13G U31A], for which the self-cleavage stood at 0.06.

UAACAGGGGACCCCAGCAGAAGCGUUCACGUCGCAGCCCCUGUCAGAUUCCGGCGAAUCUGCGAAUUCUGCUGUAUAUCUC [G10A A13C U51C U54C]: the self-cleavage is 0.22.

On to UAACAGGGGACCACUGCAGAAGCGUUCACGUCGCAGCCCCAGUCAGAUUCUGGAGCAUCUGCGAAUUCAGCUGUAUAUCAC [G10A A15U U41A U54A A56C U69A U80A], for which the self-cleavage came out at 0.05.

As for UAACAGGGGACCUCAGCGGAAGCGUUCACGUCGCAGCCCCCGUCAGAUUCUGGUGAAUCUGCGAAUUCUGCUGUAUAUCUC [G10A A13U A18G U41C], the self-cleavage is 0.09.

As to UAACAGGGGACCACAGCGGUAGCGUUCACGUCGCAGCCCCCGUCAGAUUCUGGUGAAUCUGCGAAUUCUGCUGUAUAUCUC [G10A A18G A20U U41C], the self-cleavage stood at 0.07.

On to UAACAGGGGACCACGGCAGAAGCGUUCACGUCGCAGCCCCUGUCAGAUUCUGGUGAAUCUGCGGAUUCUGCUGUAUAUCUC [G10A A15G A64G], for which the self-cleavage stood at 0.1.

As to UAACAGGGGACCACUGCAGAAGCGUUCACGUCGCUGCCCCGGUCAGACUCUGGUGGAUCUGCGAAUUCUGCAGUAUAUCUC [G10A A15U A35U U41G U48C A56G U72A], the self-cleavage stood at 0.07.

As for UAACAGGGGACCACUGCAGAAGCGUUCAGGUCGCAGCCCCUGUCAGAUUCUGGUGAAUCUGCGAAUUCUGCUGUAUAUCUC [G10A A15U C29G], the self-cleavage stood at 0.23.

Turning to UAACAGGGGACCACAGCGGAAGCGUUCACAUCGCAGCCCCUGUCAGAUUCUGGUGAAUCUGCGAAUUCUGCUGUACAUCUC [G10A A18G G30A U76C], the self-cleavage stood at 0.04.

As to UAACAGGGGACCACGGCAGAAGCGUUCACGCCGCAGCCCCUGUCAGAUUCUGGUGAAUCUGCGAUUUCUGCGGCAUAUCUC [G10A A15G U31C A65U U72G U74C], the self-cleavage came to 0.05.

On to UAACAGGGGACCUCAGCAGAAGGGUUCACGUAGCAGCUCCUGUCAGAUUCUGGUGAAUCUGCGGAUUCUGCUGUAUAUCCC [G10A A13U C23G C32A C38U A64G U80C], for which the self-cleavage came out at 0.02.

As to UAACAGGGGACCACAGCGGAAGCGUUCACGUUGCAGCCCCUGUCAGAUUCAGGAGAAUCUGCGAAUUCUGCUGCAUUUCUC [G10A A18G C32U U51A U54A U74C A77U], the self-cleavage stood at 0.21.

Consider UAACAGGGGACCACUGCAGUAGCGUUCACGUCGCAGCCCCCGUCAGAUUCUGGUGAAUCUGCGAAUUCUGCUGUAUAUCUC [G10A A15U A20U U41C], for which the self-cleavage is 0.07.

For UAACAGGGUGCCACAGCAGAAGCGUUCACGUCGCAGCCCCUGUCAGAUUCUGGUGAAACCGCGAAUUCUGCUGUAUAUCUC [G9U U58A U60C], the self-cleavage amounted to 0.08.

Turning to UAACAGGGGACCACGGCAGAAGCGUUCACGUCGCAGCCCCUGUCAGAUUCUGGGUAAUCUGCGAAUUCUGCUGUAUAUCUC [G10A A15G U54G G55U], the self-cleavage is 0.13.

Regarding UAACAGGGUGCCACAGCAGAAGCGUUCACGUCGCAGCCCCUGUCAGAUUCUGGUGAAUCUGCGAAUUCCGCCGUAUAUCUC [G9U U69C U72C], the self-cleavage was 0.13.

For UAACAGGGUGCCACAGCAGAAGCGUUCACGUCGCAGCCCCUGUCAGAUCCUGGAGAAUCUUCGAAUUCUGCUGUAUAUCUC [G9U U49C U54A G61U], the self-cleavage is 0.03.

In the case of UAACAGGGGACCACAGCGGAAGCGUUCACGUCGCAGCCCCUGGCAGAUUCCGGUGAAUCUGCGAAUUCUGCUGUAUAUCUC [G10A A18G U43G U51C], the self-cleavage came out at 0.14.

With UAACAGGGGACCACGGCAGAAGCGUUCACGUCGCAGCCCCUGUCAGAUUCUGGUGAAUCUGCGAACUCUGCUGUAUAUCUC [G10A A15G U66C], the self-cleavage is 0.21.

UAACAGGGUGCCACAGCAGAAGCGUUCACGUCGCAGCCCCUGUCAGAUCCUGGUGAAUCUGCGGAUUCUGCUGUAUAUCUC [G9U U49C A64G]: the self-cleavage was determined as 0.14.

On to UAACAGGGUGCCACAGCAGAAGCGUUCACGUCGCAGCCCCUGUCAGACUCUGGUGAAUUUGCGAAUUCUGCUGUAUAUCUC [G9U U48C C59U], for which the self-cleavage was determined as 0.36.

UAACAGGGGACCACCGCAGAAGCGUACACGUCGCAGCCCCUGUCAGAUUCUGGUGAAUCUGCAAAUUCUGCUGUAUAUCUC [G10A A15C U26A G63A]: the self-cleavage was 0.26.

The values are drawn from the RNAGym collection of RNA variant scans (doi:10.1093/nar/gkz1192).
